Measured values taken from the supplement of paper PMC3724861.
This is one part of the list.

Each sequence was assayed on T1, Caupolican (Caup) homeodomain DNA-binding domain (assay: PBM E-score (8-mer, recovered from the published 9-mer minima) (E-score (dimensionless, -0.5 to 0.5)); Drosophila protein; higher = stronger relative binding preference, active = 0.31 or more).
T1 sequence: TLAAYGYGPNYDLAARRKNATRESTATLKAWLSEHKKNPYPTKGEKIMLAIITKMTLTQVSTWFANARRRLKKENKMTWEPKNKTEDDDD
How it was run: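 An enrichment score, with higher meaning stronger, expresses relative binding preference for each short DNA word. The protein used was Caup's homeodomain DNA-binding domain (residues 214-303), produced by in vitro transcription and translation and tested at 100 nM on custom-designed protein binding microarrays. The 8-mer values were recovered from published 9-mer scores, each equal to the lower of its two constituent 8-mer scores.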

| Sequence | PBM E-score |
| --- | --- |
| CAGCTAAA | inactive: 0.0657 |
| CAACATGA | active: 0.344 |
| AGCAGTAT | inactive: -0.00186 |
| AACGTATT | inactive: 0.0772 |
| GGGGAGAC | inactive: -0.203 |
| GGAAACCC | inactive: -0.0884 |
| GCGTTAAA | inactive: -0.0823 |
| AAACCAAT | inactive: 0.114 |
| GCATATCA | inactive: 0.0447 |
| GCCTTTCC | inactive: -0.14 |
| ATGAGATC | inactive: 0.111 |
| CAAATTAA | inactive: 0.0851 |
| CAAAACGA | inactive: 0.0495 |
| AATACAAT | inactive: 0.226 |
| AACGGTGA | inactive: 0.0278 |
| ATCCGTTC | inactive: -0.0452 |
| CACGACGA | inactive: 0.0355 |
| AAGTGGAG | inactive: -0.0238 |
| CATTCTGC | inactive: -0.0716 |
| AATCATGC | inactive: 0.0523 |
| CTCAAGCA | inactive: 0.0108 |

| Sequence | PBM E-score |
| --- | --- |
| ATCACCTA | inactive: 0.0852 |
| ACACATGC | inactive: 0.236 |
| GTCTCGTA | inactive: 0.0548 |
| GAGGATCC | inactive: -0.0915 |
| CCTTCCGC | inactive: -0.195 |
| AATAGTTA | inactive: 0.13 |
| ACGCCTAC | inactive: -0.105 |
| GAATGACC | inactive: -0.0161 |
| GAACACCA | inactive: 0.195 |
| ATTAACAA | active: 0.342 |
| AGAGCCCG | inactive: -0.251 |
| ACTCATCA | inactive: 0.0128 |
| ACCGTTAT | inactive: 0.0036 |
| AGGCACCA | ≥ -0.0964 |
| AATCGATA | inactive: 0.143 |
| CCTCCAAG | inactive: -0.0978 |
| TCATCAAA | inactive: 0.0167 |
| CACATCTC | inactive: -0.00827 |
| TCGTTAAA | inactive: 0.0672 |
| TCGATAGA | inactive: 0.0878 |
| AAGTGGGG | inactive: -0.203 |

| Sequence | PBM E-score |
| --- | --- |
| AGCACTTC | inactive: -0.00216 |
| GAGCAATA | inactive: 0.0284 |
| CATTAGTA | inactive: 0.153 |
| ACCCATCC | inactive: -0.0713 |
| TGGGTGAA | inactive: 0.0348 |
| GACCAGGA | inactive: -0.00862 |
| GCGGCTAA | inactive: -0.139 |
| ACAGGAAT | inactive: 0.222 |
| AGGATAAG | inactive: -0.0656 |
| CACCTGAG | inactive: -0.114 |
| CGAATATC | inactive: 0.0265 |
| TAGCATGA | inactive: 0.231 |
| TATTCTAA | inactive: 0.116 |
| TTCATCAA | inactive: 0.0566 |
| ATTCAATA | ≥ 0.174 |
| CGATCGAC | inactive: 0.00154 |
| GTCTAAAC | inactive: 0.0391 |
| CAATTCAG | inactive: -0.0441 |
| CTACTATC | inactive: 0.134 |
